According to the supplement of paper PMC10338343:
± gives the standard deviation. This is a selection; strong and weak results do not stand in their true shares.

Each sequence was assayed on MIWI (PIWIL1) piRISC loaded with piRNA #1 (30 nt) (assay: pre-steady-state target cleavage rate (min^-1); MIWI and MILI are mouse PIWI proteins and EfPiwi is from a freshwater sponge; tags in brackets are library labels; higher = faster piRNA-guided slicing of the target). Details: guide: piRNA #1 5'p-UGAGGUAGUAGGUUGUAUAGUAUCCAGAGG; auxiliary factor: 500 nM mouse GTSF1.
Summary of the method: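 Cleave-'n-Seq: a transcribed, DNA-blocked target RNA library (0.1 nM) was mixed with 1 nM active affinity-purified piRISC carrying one synthetic guide, with or without 500 nM GTSF1 partner protein, in HEPES–potassium acetate buffer at 33 °C for 0–8 or 0–960 min. Uncleaved targets were sequenced and normalised to depth and to weakly complementary targets. Three trials were pooled, and k3 was capped at 0.0001 min^-1. The pre-steady-state cleavage rate came from a burst-and-steady-state fit.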

GGAGACCAUACUAUACAACCUCCUACCUCA was tested. Which “pre-steady-state target cleavage rate” value did it give?
Its value is 0.917 ± 0.045.

Which “pre-steady-state target cleavage rate” value does the source give for GGUCUGUGAUACUAUACAACCUACUACCUCA here?
Its value is 1.83 ± 0.11.

How did the “pre-steady-state target cleavage rate” value turn out when GGAGACGAUUCUAUACAACCUACUACCUGA was run?
Its value is 0.741 ± 0.088.

For GGUCUGGAUACUAUACACCCUACUACCUCA, which “pre-steady-state target cleavage rate” value is on record?
The value was 1.83 ± 0.096.

For CCUGUGGAUAGUAUACAACCUACUACCUCA, which “pre-steady-state target cleavage rate” value is on record?
Its value is 0.0347 ± 0.0098.

For GCUCUCGAUACUAUACAACCAACUACCUCA, which “pre-steady-state target cleavage rate” value is on record?
The value was 0.169 ± 0.018.

Which “pre-steady-state target cleavage rate” value does the source give for CCUCUGGAUACUAUACAACCUACUGACCUCA here?
The value was 1.02 ± 0.058.

How did the “pre-steady-state target cleavage rate” value turn out when GGAGACCUUACUAUUCAAGCUACUACCUCA was run?
The value was 0.711 ± 0.05.

Which “pre-steady-state target cleavage rate” value does the source give for GGAGACGAUACUAUAGAAGCUACUACCUCA here?
The value was 0.593 ± 0.033.

With GGAGACCUUACUAUACAACCUAGUACCACA as the sequence, how does the “pre-steady-state target cleavage rate” value read?
Its value is 0.345 ± 0.065.

GGAGACCUAACUAUCCAACCUACUACCUCA was tested. Which “pre-steady-state target cleavage rate” value did it give?
Its value is 0.993 ± 0.086.

How did the “pre-steady-state target cleavage rate” value turn out when GGAGACCUAUGAAUACAACCUACUACCCCA was run?
Its value is 0.00319 ± 0.0027.

GGUCUGGAUACAAUACAACCUACUACCUCA was tested. Which “pre-steady-state target cleavage rate” value did it give?
Its value is 1.89 ± 0.11.

With GCUCUGGAAACAAUACAACCUACUACCUCA as the sequence, how does the “pre-steady-state target cleavage rate” value read?
Its value is 1.3 ± 0.074.

With CCUCUGGAUACUAUACAACCUACUAGCUCA as the sequence, how does the “pre-steady-state target cleavage rate” value read?
The value was 1.32 ± 0.11.

GGAGAGCAUACUAUACAUCCUACUACCUCA was tested. Which “pre-steady-state target cleavage rate” value did it give?
The value was 1.49 ± 0.1.

How did the “pre-steady-state target cleavage rate” value turn out when GGAGACGAUACUUUACAACCUACAACCUCA was run?
The value was 0.239 ± 0.028.

For GGUCUGGAUACUAUACCACCUACUACCUCA, which “pre-steady-state target cleavage rate” value is on record?
The value was 1.38 ± 0.074.

Which “pre-steady-state target cleavage rate” value does the source give for GGAGACCUAUGAUAACUAACCUACUACCUCA here?
Its value is less than 0.0001.

Which “pre-steady-state target cleavage rate” value does the source give for GGAGACCUUACUGUACAACCUACUACCUCA here?
The value was 0.655 ± 0.077.

For GGAGACGAUAGUAUACAAGCUACUACCUCA, which “pre-steady-state target cleavage rate” value is on record?
The value was 0.577 ± 0.04.

For GGAGACCUAACUAUACAACCUACGACCUCA, which “pre-steady-state target cleavage rate” value is on record?
Its value is 0.486 ± 0.051.

With GCGUCUGGAUACUAUACAACCUACUACCUCA as the sequence, how does the “pre-steady-state target cleavage rate” value read?
Its value is 1.97 ± 0.16.

With GGAGACCUUACUAUACAACCUACUAGCUGA as the sequence, how does the “pre-steady-state target cleavage rate” value read?
Its value is 0.142 ± 0.031.

Which “pre-steady-state target cleavage rate” value does the source give for GGUCUGGAUUCUAUACAACCUACUAGCUCA here?
Its value is 0.189 ± 0.028.

With GGACUGGAUACUAUACAACCAACUACCUGA as the sequence, how does the “pre-steady-state target cleavage rate” value read?
The value was 0.0355 ± 0.0066.

With GGAGACGAUACUAAACAACCUACUACCACA as the sequence, how does the “pre-steady-state target cleavage rate” value read?
The value was 1.29 ± 0.085.

Which “pre-steady-state target cleavage rate” value does the source give for GGUGUGGAUACUAUACAACCAACUACCUCA here?
The value was 0.17 ± 0.016.

Which “pre-steady-state target cleavage rate” value does the source give for GCUCUGGAUACUAUACAACCUACUAGGUCA here?
Its value is 0.0149 ± 0.0059.

With GGACUGGAUACUAAAGAACCUACUACCUCA as the sequence, how does the “pre-steady-state target cleavage rate” value read?
Its value is 1.22 ± 0.077.

Which “pre-steady-state target cleavage rate” value does the source give for CCUCUGGAUACUAUACAUACCUACUACCUCA here?
The value was 0.0115 ± 0.005.

How did the “pre-steady-state target cleavage rate” value turn out when GGAGACGAUCUAUACAACCUACUACCUCA was run?
Its value is 1.43 ± 0.11.

With GGAGAGGAUUCUAUUCAACCUACUACCUCA as the sequence, how does the “pre-steady-state target cleavage rate” value read?
The value was 1.42 ± 0.087.

Which “pre-steady-state target cleavage rate” value does the source give for GGAGAGGAUACUAUUCAACCUACAACCUCA here?
The value was 0.495 ± 0.044.

GGACUGGAUACUAUACAACCUACAAGCUCA was tested. Which “pre-steady-state target cleavage rate” value did it give?
Its value is 0.00319 ± 0.0019.

For GGACUGGUUACUAUACAACGUACUACCUCA, which “pre-steady-state target cleavage rate” value is on record?
Its value is 0.864 ± 0.088.

GGAGACCUAACUAUAGAAGCUACUACCUCA was tested. Which “pre-steady-state target cleavage rate” value did it give?
The value was 0.226 ± 0.033.

Which “pre-steady-state target cleavage rate” value does the source give for GGAGACCUAUGUAUACAAGCUACUACCUCA here?
The value was 0.118 ± 0.013.

Which “pre-steady-state target cleavage rate” value does the source give for CCUCUGGAUACUAUUCAACCAACUACCUCA here?
Its value is 0.135 ± 0.017.

For GGAGACCUUACAAUACAACGUACUACCUCA, which “pre-steady-state target cleavage rate” value is on record?
Its value is 0.0183 ± 0.0052.
